# Results: PubChem BioAssay AID504339 (National Center for Advancing Translational Sciences (NCATS), 2011)
# In all, about 390,000 compounds went through this assay and about 17,000 (4.4%) were called active. This list was built around the results that the source calls inconclusive (neither active nor inactive); the mix of calls is not that of the screen. Calls follow the shape of the dose curve; as a rule, active = well fitted inhibition curve with a large enough effect; inconclusive = small, poorly fitted or top-dose-only effect; inactive = no such curve, though single readings can be large or run the other way. A potency beside an inconclusive call is a rough fit, not a confirmed value.
# Target: Lysine-specific demethylase 4A (Homo sapiens) (UniProt O75164)
# Test: qHTS Assay for Inhibitors of JMJD2A-Tudor Domain; also: nearly all actives have a fitted effect of over 50% in size
# Conditions: AlphaScreen JMJD2A-Tudor / H3K4me3 peptide binding; activity change, negative = inhibition: at 114 µM (top of the series)
# % is scaled to controls: 0 for no effect and ±100 for the full control effect; potency is read from the fitted curve at half-maximal effect; tags tell the direction and shape of the fitted curve.
# Chain of UniProt O75164 (O75164 whole entry, looked up, the tested form may be a part): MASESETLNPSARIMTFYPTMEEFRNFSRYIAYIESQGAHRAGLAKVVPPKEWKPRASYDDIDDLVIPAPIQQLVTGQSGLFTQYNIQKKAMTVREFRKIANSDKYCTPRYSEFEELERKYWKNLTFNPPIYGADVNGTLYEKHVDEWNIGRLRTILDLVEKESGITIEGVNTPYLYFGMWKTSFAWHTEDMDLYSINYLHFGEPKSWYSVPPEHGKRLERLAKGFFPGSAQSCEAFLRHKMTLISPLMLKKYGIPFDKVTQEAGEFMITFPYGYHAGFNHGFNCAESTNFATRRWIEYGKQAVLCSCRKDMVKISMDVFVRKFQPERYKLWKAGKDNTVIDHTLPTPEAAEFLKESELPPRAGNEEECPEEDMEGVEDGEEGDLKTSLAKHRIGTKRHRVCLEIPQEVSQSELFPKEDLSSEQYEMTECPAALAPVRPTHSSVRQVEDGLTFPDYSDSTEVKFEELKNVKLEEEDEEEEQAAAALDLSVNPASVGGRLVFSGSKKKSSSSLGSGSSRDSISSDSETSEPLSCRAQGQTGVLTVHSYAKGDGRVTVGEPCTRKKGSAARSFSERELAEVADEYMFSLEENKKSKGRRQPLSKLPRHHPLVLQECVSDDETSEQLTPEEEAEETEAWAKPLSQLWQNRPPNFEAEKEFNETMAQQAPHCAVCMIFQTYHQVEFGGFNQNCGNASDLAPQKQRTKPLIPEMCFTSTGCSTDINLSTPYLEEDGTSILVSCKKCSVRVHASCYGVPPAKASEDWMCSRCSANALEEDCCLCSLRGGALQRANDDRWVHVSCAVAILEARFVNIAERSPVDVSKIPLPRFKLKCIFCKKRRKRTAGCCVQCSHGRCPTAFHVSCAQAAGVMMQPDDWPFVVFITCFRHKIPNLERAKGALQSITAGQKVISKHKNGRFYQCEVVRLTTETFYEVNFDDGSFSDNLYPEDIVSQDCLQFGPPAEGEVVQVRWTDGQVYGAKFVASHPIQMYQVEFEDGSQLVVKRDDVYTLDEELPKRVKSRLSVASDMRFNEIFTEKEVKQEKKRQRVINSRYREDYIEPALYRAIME
Structure (SMILES),Potency,"activity change, negative = inhibition"
c1ccc(CCNc2nc(-c3ccccn3)nc3ccccc23)cc1,"inconclusive: 1.26 µM [inhibitor, full curve, poor fit]",
O=C(O)c1cc(N2N=C(C(F)(F)F)/C(=C/C=C/c3ccco3)C2=O)ccc1Cl,active: 1 µM,
CCOc1cccc(C2/C(=C(/O)c3ccc4c(c3)CC(C)O4)C(=O)C(=O)N2CCCn2ccnc2)c1 (centres undefined),,inactive: -28.4%
Clc1cccc(-n2ncc3c(NC4CCCCC4)ncnc32)c1,,inactive: 12.8%
O=C(Nc1ccccc1F)c1nc(S(=O)(=O)Cc2ccccc2F)ncc1Cl,,inactive: 0.629%
Cc1ccc(NCC(=O)Nc2ccc(Br)cc2)cc1C,,inactive: -15.3%
O=C(N/N=C/c1cccs1)c1n[nH]c2c1CCCC2,,inactive: -1.44%
CC(C)(C)OC(=O)N1CCC(c2c(C(=O)NCCN3CCC(Cc4ccccc4)CC3)cnn2-c2cccc(Cl)c2)CC1,"inconclusive: 50.1 µM [inhibitor, partial curve]",
Cc1c(C(=O)Nc2ccc3c(c2)OCCO3)sc2nc(-c3ccccc3)cn12,"inconclusive: 89.1 µM [inhibitor, single point]",
Cc1cccc(N2CCN(C(=O)c3cc(S(=O)(=O)N4CCC(C)CC4)cn3C)CC2)c1C,"inconclusive: 63.1 µM [inhibitor, partial curve]",
Cc1cccc(N2CCN(C(=O)c3ccc4nc(-c5ccco5)c(-c5ccco5)nc4c3)CC2C)c1 (centres undefined),"inconclusive: 20 µM [inhibitor, full curve]",
Cc1c(CC(=O)O)c(=O)oc2c(C)c(OCc3ccc(F)cc3Cl)ccc12,"inconclusive: 28.2 µM [inhibitor, full curve]",
COc1ccc(CNC(=O)CN2C(=O)c3ccccc3S2(=O)=O)cc1,"inconclusive: 15.8 µM [inhibitor, full curve, poor fit]",
CC1Cc2nc(SCC(=O)Nc3nc4ccccc4s3)n(C)c(=O)c2S1 (centres undefined),"inconclusive: 100 µM [inhibitor, single point]",
Fc1ccc2[nH]c3c(N4CCN(Cc5ccc6c(c5)OCO6)CC4)ncnc3c2c1,"inconclusive: 50.1 µM [inhibitor, partial curve]",
O=C1c2ccc(-c3ccc(Cl)c(C(F)(F)F)c3)cc2S(=O)(=O)c2cccc(C(=O)N3CCN(c4ccc(Cl)cn4)CC3)c21,"inconclusive: 44.7 µM [inhibitor, partial curve]",
Cc1cccc(CNc2ncnc3ccc(-c4ccc5c(c4)OCO5)cc23)c1,"inconclusive: 44.7 µM [inhibitor, partial curve, poor fit]",
CCOC(=O)c1cc(-c2ccccc2)sc1NC(=O)COC,,inactive: 3.52%
Nc1ccc(C(O)(C(F)(F)F)C(F)(F)F)cc1,"inconclusive: 39.8 µM [inhibitor, single point]",
O=S(=O)(Nc1nc2ccccc2nc1N1CCN(c2ccccc2F)CC1)c1ccc(Cl)cc1,"inconclusive: 56.2 µM [inhibitor, partial curve, poor fit]",
CCO[C@@H]1OC(C(=O)O)=C[C@H](C2CC2)[C@H]1CCCO,"inconclusive: 28.2 µM [inhibitor, single point]",
C=CCC(C)(NCc1ccccc1)c1ccccc1 (centres undefined),"inconclusive: 79.4 µM [inhibitor, partial curve]",

Structure (SMILES),Potency,"activity change, negative = inhibition"
C=CC[C@@H](CC(=O)N(CCO)Cc1ccccc1)C(=O)N[C@@H](COC(=O)[C@@H](CC=C)Cc1ccc(F)cc1)Cc1c[nH]c2ccccc12,"inconclusive: 35.5 µM [inhibitor, partial curve]",
O=C(Cc1ccc(F)cc1)NC1CC(=O)N(c2ccc3c(c2)OCCO3)C1 (centres undefined),,inactive: -8.77%
Cc1ccc(S(=O)(=O)/N=C/c2c(O)ccc3ccccc23)cc1,"inconclusive: 28.2 µM [inhibitor, partial curve]",
COC(=O)C1=C(C)N=C2SC(C#N)=C(N)N2C1c1cccc(OC)c1 (centres undefined),,inactive: -13.7%
Cc1ccc(S(=O)(=O)N(CC(=O)Nc2ccccc2C(=O)O)c2cccc(Cl)c2C)cc1,,inactive: -26.4%
Cc1ccc(NC(=O)CN2C(=O)CSc3ccc(S(=O)(=O)N4CCCC4)cc32)cc1F,,inactive: -30.8%
Clc1cccc(N2CCN(Cc3ccc(Br)o3)CC2)c1,active: 28.2 µM,
COc1ccc(C2=Nn3c(nnc3-c3ccccc3C(F)(F)F)SC2)cc1OC1CCOC1 (centres undefined),"inconclusive: 15.8 µM [inhibitor, full curve]",
NC1(C(=O)O)CSSC1,active: 89.1 µM,
O=C(NC(=S)Nc1ccc(N2CCOCC2)c(Cl)c1)c1cccs1,"inconclusive: 70.8 µM [inhibitor, single point]",
COc1ccccc1C(=O)NC(=S)Nc1cccc2cc(O)ccc12,"inconclusive: 63.1 µM [inhibitor, partial curve, poor fit]",
COc1cc(C(=O)N/N=C/c2ccc(OC(=O)c3ccccc3)c(OC)c2)ccc1O,,inactive: -10.4%
CC(=O)Nc1ccc(NC2=CC(=O)c3ccccc3C2=O)cc1,active: 25.1 µM,
COc1cccc(C2CC(c3ccc(Cl)cc3Cl)n3nc(N)nc3N2)c1 (centres undefined),"inconclusive: 100 µM [inhibitor, partial curve]",
COc1ccccc1CNS(=O)(=O)c1ccc2[nH]c3c(c2c1)CCCCC3,"inconclusive: 39.8 µM [inhibitor, full curve]",
FC(F)(F)c1cccc(N2CCN(Cc3cccnc3)CC2)c1,active: 1.26 µM,
CCOC(=O)c1c(C)[nH]c(C)c1S(=O)(=O)NCCCc1ccco1,"inconclusive: 70.8 µM [inhibitor, partial curve, poor fit]",
COc1cc(OC)c(OC)cc1/C=C/c1nc2cc3ccccc3cc2c(=O)n1-c1ccccc1Br,"inconclusive: 25.1 µM [inhibitor, partial curve]",
Cc1cccc(N2CCN(C3=C(c4ccccc4)C(=O)c4ccccc43)CC2)c1C,active: 5.62 µM,
COc1cccc(CN2CCN(Cc3ccccc3C(F)(F)F)CC2)c1,active: 28.2 µM,
N#Cc1ccccc1S(=O)(=O)N1CCN(CC(O)c2ccccc2)CC1 (centres undefined),active: 2.24 µM,
CC(=O)OC[C@H]1O[C@@H](O[C@H]2C[C@]3(C)C(C[C@@H](O)C4C([C@]5(C)CC[C@@H](C(C)(C)O)O5)CC[C@]43C)[C@@]3(C)CC[C@H](O)C(C)(C)C23)[C@H](O[C@@H]2O[C@@H](C)[C@H](O)[C@@H](O)[C@H]2O)[C@@H](O)[C@@H]1O (some centres undefined),,inactive: -7.09%
